Data: PubChem BioAssay AID624417 (National Center for Advancing Translational Sciences (NCATS), 2012)
Several values for one entry are separate records, joined by “and”; a condition that tells them apart may be missing. Identical values can stand only once. In all, about 410,000 compounds went through this assay and about 6,400 (1.6%) were called active. This list was built around the results that the source calls inconclusive (neither active nor inactive); the mix of calls is not that of the screen. The call rests on the fitted dose curve; in most records, active means well fitted inhibition curve with a large enough effect; inconclusive means small, poorly fitted or top-dose-only effect; inactive means no such curve, though single readings can be large or run the other way. Potencies beside an inconclusive call are fits to weak or partial responses and may not hold up.

Target: Glucagon-like peptide 1 receptor (Homo sapiens) (UniProt P43220)
Assay: qHTS of GLP-1 Receptor Inverse Agonists (Inhibition Mode); further: nearly all actives have a fitted effect of over 55% in size
Conditions: HEK293 GLP-1R CRE-luciferase, luminescence, 24 h, GLP-1R form is constitutively active; activity change, negative = inhibition: at 38.3 µM (top of the series) unless noted
Outline: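 Inverse agonism was detected as reduced cAMP-driven luciferase luminescence after 24 h compound treatment. The cells were HEK293 clones expressing constitutively active human GLP-1R with the reporter. Reporter-only and GPR119 cell lines served as counterscreen controls.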
On the % scale 0 is the no-effect control and ±100 the full control effect; potency means the concentration at half of the fitted maximal effect; tags describe the fitted curve by direction and shape.

Chain of UniProt P43220 (P43220 whole entry, looked up): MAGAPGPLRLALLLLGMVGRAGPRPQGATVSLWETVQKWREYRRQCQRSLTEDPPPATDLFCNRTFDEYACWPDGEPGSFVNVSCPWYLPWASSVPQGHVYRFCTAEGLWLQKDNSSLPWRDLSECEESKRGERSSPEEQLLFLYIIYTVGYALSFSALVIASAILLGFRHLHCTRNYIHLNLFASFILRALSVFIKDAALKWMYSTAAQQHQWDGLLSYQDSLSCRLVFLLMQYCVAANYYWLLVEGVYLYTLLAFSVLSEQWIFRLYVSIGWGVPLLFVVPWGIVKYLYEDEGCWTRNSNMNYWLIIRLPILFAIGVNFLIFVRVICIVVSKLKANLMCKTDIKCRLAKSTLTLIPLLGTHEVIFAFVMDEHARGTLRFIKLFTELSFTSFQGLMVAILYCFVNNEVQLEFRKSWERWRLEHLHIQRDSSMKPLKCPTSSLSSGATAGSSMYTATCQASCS

Structure (SMILES)	Potency	activity change, negative = inhibition
N#Cc1c(-n2cccc2C=O)sc2c1CCCC2	inconclusive: 11.2 µM [inhibitor, partial curve]	–
O=C(NC1CCCCC1)N1CCCc2ccccc21	inconclusive: 2.82 µM [inhibitor, partial curve, poor fit]	–
CCOc1ccccc1NC(=O)C(Sc1ccccc1)c1ccccc1 (centres undefined)	inconclusive: 6.31 µM [inhibitor, partial curve, poor fit]	–
CCCN(CC(=O)Nc1ccccc1C)C(=O)c1ccc(C(=O)c2ccccc2)cc1	inconclusive: 10 µM [inhibitor, partial curve, poor fit]	–
O=C(Nc1ccccc1Br)c1cc(S(=O)(=O)NC2CCCCC2)ccc1F	inconclusive: 22.4 µM [inhibitor, single point]	–
COc1cc(NC(=O)CN2CCCN(S(=O)(=O)c3ccc(F)cc3)CC2)cc(OC)c1	inactive	–
C=CCc1cccc2cc(-c3nc4ccc(C(=O)O)cc4[nH]3)c(=O)oc12	inactive	–
O=C(/C=C/c1ccncc1)c1ccc2c(c1)OCCO2	inconclusive: 15.8 µM [inhibitor, single point]	–
CC1(C)CC(NC(=O)c2ccc(Cl)c(S(=O)(=O)N(Cc3ccccc3)c3ccccc3)c2)CC(C)(C)N1	inconclusive: 5.62 µM [inhibitor, full curve, poor fit]	–
O=C(OCC(=O)N1CCC(Cc2ccccc2)CC1)c1ccc(O)cc1	inconclusive: 5.01 µM [inhibitor, partial curve]	–
O=C(Nc1nc(-c2ccco2)c(-c2ccco2)s1)C1CCC1	inconclusive: 28.2 µM [inhibitor, single point]	–
CN1C(=O)C(O)(CC(=O)/C=C/c2ccco2)c2cc(Br)ccc21 (centres undefined)	inconclusive: 28.2 µM [inhibitor, single point]	–
CCN(c1ccccc1)S(=O)(=O)c1ccc(Cl)c(NC(=O)CN2C(=O)NC3(CCCC3)C2=O)c1	inconclusive: 8.91 µM [inhibitor, single point]	–
O=C(N/N=C1\CCc2ccccc21)c1ccc(O)cc1	–	inactive: -13.2% [at 7.66 µM]
O=C(CNc1ccc2ccccc2c1)N/N=C/c1ccc([N+](=O)[O-])o1	inactive	–
CCc1ccc(NC(=O)c2sccc2-n2cccc2)cc1	inconclusive: 7.94 µM [inhibitor, partial curve, poor fit]	–
O=C(CCN1C(=O)/C(=C/c2ccccc2Cl)SC1=S)NNC(=O)c1ccccc1O	inconclusive: 28.2 µM [inhibitor, single point]	–
CCc1ccc(NC(=O)C2CCN(S(=O)(=O)c3cccc(-c4noc(C)n4)c3)CC2)cc1	inconclusive: 28.2 µM [inhibitor, single point]	–
O=C(c1c(F)cccc1F)N(Cc1ccccc1)Cc1ccccc1	inconclusive: 7.94 µM [inhibitor, partial curve, poor fit]	–
CCOc1cc(CNC(=O)Cn2ncn3c(cc4cc(F)ccc43)c2=O)cc(OCC)c1OCC	inactive	–
CCCc1ccc(NC(=O)C2CCCN(c3cnccn3)C2)cc1 (centres undefined)	inconclusive: 10 µM [inhibitor, partial curve, poor fit]	–
CCN(CC)S(=O)(=O)c1cc(C)c(C)cc1OCC(=O)NC1CCCC1	inconclusive: 11.2 µM [inhibitor, partial curve, poor fit]	–

Structure (SMILES)	Potency	activity change, negative = inhibition
CCOc1ccc(S(=O)(=O)Nc2cc(Cl)ccc2O)cc1	inconclusive: 12.6 µM [inhibitor, partial curve, poor fit]	–
CC(C)(C)c1ccc(CSc2nc(N)cc(=O)[nH]2)cc1	inactive	–
CCOc1ccccc1NC(=O)NCc1ccccn1	inactive	–
CS(=O)(=O)N(CC(=O)Nc1cc(Cl)ccc1Cl)c1ccccc1Cl	inconclusive: 10 µM [inhibitor, single point]	–
Cc1ccc(C(Sc2ccccc2)C(Cn2cncn2)C(=O)c2ccccc2)cc1 (centres undefined)	inconclusive: 11.2 µM [inhibitor, single point]	–
Cc1nn(CC2CC2)c(=O)n1-c1ccccc1F	inactive	–
COc1ccc(S(=O)(=O)NC2CCCCC2)c(C)c1C	inconclusive: 17.8 µM [inhibitor, partial curve, poor fit]	–
Cc1cccc(N2CCN(CC(=O)Nc3nccs3)CC2)c1C	inconclusive: 3.55 µM [inhibitor, partial curve, poor fit]	–
CN1CCN(C(c2ccc(C(F)(F)F)cc2)c2ccc3cccnc3c2O)CC1 (centres undefined)	inconclusive: 7.94 µM [inhibitor, partial curve]	–
Cn1c(C(=O)NCCc2ccccc2)cc2sc(Cl)cc21	inconclusive: 12.6 µM [inhibitor, single point]	–
O=C(NCCN1CCC(n2c(=O)[nH]c3ccccc32)CC1)C(c1ccccc1)c1ccccc1	inconclusive: 22.4 µM [inhibitor, partial curve, poor fit]	–
COc1ccc(C(=O)COC(=O)Cc2n[nH]c(=O)c3ccccc23)c(OC)c1	inactive	–
Cc1ccc(S(=O)(=O)Nc2ccccc2CNc2ncc(Br)cc2Br)cc1	active: 10 µM	–
Cc1cc(C)n(CCC(=O)N/N=C/c2c(O)ccc3ccccc23)n1	inconclusive: 2.82 µM [inhibitor, full curve, poor fit]	–
CC(NC(=S)Nc1ccc(Cl)cc1)C(c1ccccc1)N1CCOCC1 (centres undefined)	inconclusive: 28.2 µM [inhibitor, single point]	–
CN1CCN(c2cc(-c3ccccc3)nc3cc(-c4ccc(F)cc4)nn23)CC1	inconclusive: 1.58 µM [inhibitor, full curve, poor fit]	–
CCn1c(=O)c(C(=O)Nc2nc3ccccc3[nH]2)c(O)c2ccccc21	inactive	–
CCc1ccc(NCc2ccc(OC)c(Cn3ccnc3)c2)cc1	inconclusive: 12.6 µM [inhibitor, partial curve, poor fit]	–
COc1ccc(CN(C)C(=O)COC(=O)c2c(-c3ccccc3Cl)noc2C)cc1	inconclusive: 12.6 µM [inhibitor, partial curve, poor fit]	–
Cc1ccc(OCCNC(=O)/C=C/c2ccccc2)cc1C	inconclusive: 28.2 µM [inhibitor, single point]	–
COC(=O)c1ccc(-n2ccnc2)cc1	inactive	–
Cc1ccc(NC(=S)Nc2ccccn2)c(C)c1	inconclusive: 7.08 µM [inhibitor, partial curve, poor fit]	–

Structure (SMILES)	Potency	activity change, negative = inhibition
C=CCN1C2CCCC1CC(NC(=S)Nc1ccc(Cl)cc1)C2 (centres undefined)	inconclusive: 12.6 µM [inhibitor, single point]	–
C#CC(CC)(CC)NC(=O)c1ccc(Br)s1	inconclusive: 7.08 µM [inhibitor, partial curve, poor fit]	–
CC(Sc1nnc(-c2cccs2)n1-c1ccccc1)C(=O)NCc1ccco1 (centres undefined)	inconclusive: 1.78 µM [inhibitor, partial curve, poor fit]	–
Cc1cc(C)c(S(=O)(=O)n2ccc3ccccc32)c(C)c1	inconclusive: 20 µM [inhibitor, single point]	–
Clc1ccc(CN2CCSCC2)c(Cl)c1	inconclusive: 2.82 µM [inhibitor, single point]	–
Cc1onc(-c2ccccc2)c1C(=O)Nc1ccc(OC(C)C)cc1	inconclusive: 5.01 µM [inhibitor, full curve]	–
O=C(NCCOc1ccccc1F)c1cc([N+](=O)[O-])ccc1N1CCOCC1	inconclusive: 1.78 µM [inhibitor, full curve, poor fit]	–
COCCCNC(=O)CN1C(=O)/C(=C/c2ccccc2)Sc2ccccc21	inconclusive: 28.2 µM [inhibitor, single point]	–
Oc1ccc(N2CCN(C(c3cccs3)c3nnnn3CCc3ccccc3)CC2)cc1 (centres undefined)	inconclusive: 5.62 µM [inhibitor, partial curve, poor fit]	–
CC(C)c1cccc(-c2csc(C(C)(O)c3ccncc3)n2)c1 (centres undefined)	inconclusive: 12.6 µM [inhibitor, single point]	–
Cc1ccc(Cl)cc1N1CCN(S(=O)(=O)c2ccc3c(c2)C(C(C)C)C(=O)N3)CC1 (centres undefined)	inconclusive: 20 µM [inhibitor, single point]	–
COc1ccc(CN(C)C(=O)/C=C/c2ccc(S(=O)(=O)N3CCCCCC3)cc2)cc1	inconclusive: 11.2 µM [inhibitor, partial curve, poor fit]	–
CC(=O)N1CCc2c(sc(NC(=O)Cc3ccc(F)cc3)c2C(N)=O)C1	inactive	–
CC(C)c1ccc(NC(=O)C2CCCN2S(=O)(=O)c2ccc3nc(-c4ccccc4)[nH]c3c2)cc1 (centres undefined)	active: 8.91 µM	–
COc1ccccc1C(CNC(=O)C(C)(C)Oc1ccc(Cl)cc1)N1CCCC1 (centres undefined)	inconclusive: 28.2 µM [inhibitor, partial curve, poor fit]	–
CC[C@@H]1CCCCc2ccccc2[C@@H](C(=O)C[C@H](O)CC(C)=O)OC1=O	inconclusive: 10 µM [inhibitor, single point]	–
CC(C)OC(=O)NCCOC(=O)Nc1ccc(Cl)c(Cl)c1	inconclusive: 12.6 µM [inhibitor, single point]	–
O=C(COCc1cc(-c2cccs2)on1)NCc1ccc(F)cc1	inactive	–
Cc1[nH]c2ccccc2c1C1(O)C(=O)N(C(C)C)c2ccccc21 (centres undefined)	inactive	–
Cc1cccc(OCC(=O)Nc2ccc3c(c2)nc(CN2CCCCC2)n3C)c1	inconclusive: 12.6 µM [inhibitor, partial curve, poor fit] and inconclusive: 5.01 µM [inhibitor, full curve, poor fit]	–
